About 2,200 (0.71%) of roughly 310,000 compounds showed an effect of 50% or more. Effects have a minus sign here. This is one part of the list.
target: human ether-à-go-go-related gene (hERG) potassium channel (human, UniProt Q12809); assay: primary screen, population patch clamp on CHO cells stably expressing hERG
Sequence (Q12809 whole entry, looked up): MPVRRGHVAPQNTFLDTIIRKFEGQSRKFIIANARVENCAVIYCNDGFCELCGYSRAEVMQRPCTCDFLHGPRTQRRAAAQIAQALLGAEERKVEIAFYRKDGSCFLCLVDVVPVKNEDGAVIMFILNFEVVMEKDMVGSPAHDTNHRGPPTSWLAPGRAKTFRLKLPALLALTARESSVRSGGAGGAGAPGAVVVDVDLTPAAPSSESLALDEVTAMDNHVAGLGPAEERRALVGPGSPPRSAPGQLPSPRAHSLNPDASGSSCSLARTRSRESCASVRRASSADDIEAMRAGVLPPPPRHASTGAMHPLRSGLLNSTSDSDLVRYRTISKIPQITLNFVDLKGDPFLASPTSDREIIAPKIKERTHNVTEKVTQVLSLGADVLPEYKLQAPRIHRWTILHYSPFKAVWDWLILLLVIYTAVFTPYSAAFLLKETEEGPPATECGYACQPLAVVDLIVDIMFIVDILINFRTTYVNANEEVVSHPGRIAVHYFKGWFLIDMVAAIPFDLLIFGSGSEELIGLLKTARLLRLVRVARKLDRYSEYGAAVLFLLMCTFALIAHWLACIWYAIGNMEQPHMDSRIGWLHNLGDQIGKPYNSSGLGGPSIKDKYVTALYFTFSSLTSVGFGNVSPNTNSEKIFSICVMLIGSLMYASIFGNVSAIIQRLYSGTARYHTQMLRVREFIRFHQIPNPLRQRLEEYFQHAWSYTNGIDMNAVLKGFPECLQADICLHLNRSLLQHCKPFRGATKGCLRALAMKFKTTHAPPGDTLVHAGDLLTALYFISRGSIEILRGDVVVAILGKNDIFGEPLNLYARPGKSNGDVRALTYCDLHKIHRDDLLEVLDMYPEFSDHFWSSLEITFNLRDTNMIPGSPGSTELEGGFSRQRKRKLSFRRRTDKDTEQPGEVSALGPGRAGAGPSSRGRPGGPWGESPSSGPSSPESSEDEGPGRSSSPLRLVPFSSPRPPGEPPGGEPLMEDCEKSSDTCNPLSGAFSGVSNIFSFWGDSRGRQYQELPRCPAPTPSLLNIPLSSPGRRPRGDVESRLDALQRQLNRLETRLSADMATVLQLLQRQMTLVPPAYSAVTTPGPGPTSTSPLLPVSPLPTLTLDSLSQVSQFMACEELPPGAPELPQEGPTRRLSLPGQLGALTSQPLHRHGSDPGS

SMILES	hERG current change (%, negative = inhibition) at 1uM [%]
O=C(COc1cccc2ccccc12)N/N=C/C=C/c1ccccc1	3.49
COc1ccc(NC(=O)CSc2ccccc2)c(OC)c1	7.77
Cc1n[nH]c(=O)c2c(NC(=O)COC(=O)Cc3ccc(Cl)cc3Cl)oc(C)c12	2.98
COc1ccc(NC(=O)CSc2nnc(C)n2Cc2ccccc2)cc1	9.85
Cn1nc(-c2ccc(C(=O)O)cc2)c2ccccc2c1=O	11.6
Cc1ccc(NCCC(=O)c2ccccc2)cc1Cl	2.18
CCN(c1ccccc1)S(=O)(=O)c1ccc(OC)c(NC(=O)Cn2cnc3c2c(=O)n(C)c(=O)n3C)c1	-6.5
CCNC(=O)NC(=O)C(C)OC(=O)c1cccn1C (centres unmarked)	10.7
CCOC(=O)c1c(NC(=S)NCc2ccccc2)sc2c1CCN(C(=O)OCC)C2	9.09
O=c1[nH]c(=O)n(CCC2=CCCCC2)c(O)c1C=NC1CCN(Cc2ccccc2)CC1	-26.4
CN(NC(=O)COc1ccccc1)c1ccccc1	9.41
CCN1CCC(NCC2CCCCC2)CC1	12.7
O=C(O)C1CCC(=O)N1C1c2ccccc2Oc2ccccc21 (centres unmarked)	7.76
C/C(=N\NC(=O)c1cc(-c2ccc(Br)s2)[nH]n1)c1ccncc1	22.2
Cc1ccc(S(N)(=O)=O)cc1NC(=O)/C=C/c1ccc2c(c1)OCO2	4.18
CCOC(=O)c1cnc2ccc(Cl)cc2c1Nc1ccc(S(=O)(=O)Nc2ncccn2)cc1	6.94
CCC(C)[C@H](NC(=O)[C@@H]1Cc2ccccc2CN1)C(=O)Nc1ccc2c(c1)OCO2 (some centres unmarked)	10
COc1cccc(C(C(=O)NC(C)(C)C)N(Cc2ccco2)C(=O)CCC(=O)Nc2cc(C)on2)c1OC (centres unmarked)	13
COC(=O)c1ccc(CN2C(=O)NC3(CCCCC3C)C2=O)o1 (centres unmarked)	4.3

SMILES	hERG current change (%, negative = inhibition) at 1uM [%]
CCOc1ccc(C(=O)NCC(=O)N2CC=C(c3ccccc3)CC2)cc1OCC	-30.3
CN(C)c1nc(N)nc(Cn2ccnc2)n1	-6.33
O=C(NCCN1CCOCC1)Nc1ccc(Cl)cc1Cl	0.106
CN(C)C(=O)CSc1nc(-c2ccccc2)c(-c2ccccc2)o1	11.1
COc1ccccc1CCc1nnc(CCC(=O)NC(C)Cc2cccc(C)n2)o1 (centres unmarked)	11.2
CCC(C)C(NC(N)=O)C(=O)Nc1ccc(S(=O)(=O)Nc2ccc(OC)cc2)cc1 (centres unmarked)	9.1
O=C(Nc1ccccc1)Nc1nncs1	4.35
COc1cc(CNCc2cccs2)ccc1OCc1cccs1.Cl	5.22
Cc1cc(=O)n2nc(-c3ccc(C(F)(F)F)cc3)sc2n1	9.84
CCOc1ccccc1C(=O)N1CCN(c2ccc(C(F)(F)F)cn2)CC1	12.5
COc1ccccc1N(CC(=O)Nc1c(C)n(C)n(-c2ccccc2)c1=O)S(=O)(=O)c1ccc(C)cc1	7.05
Cc1ccc(C(=O)Nc2c[nH]c(=O)[nH]c2=O)cc1	14.7
COc1ccc2c(c1)OC[C@H]1[C@H]2N2C(=O)c3cc(OC)c(OC)cc3NC(=O)[C@@]2(C)[C@H]1c1ccccc1	5.66
C/C(=N\Nc1nc2ccc(Cl)cc2o1)c1ccccc1	16.1
Cc1cc(NC(=O)Cc2ccccc2C)no1	10.2
O=c1oc2cc(OCCO)ccc2c2c1CCCC2	13.4
Cc1cccc(Nc2ccc(C(=O)N3CCOCC3)cn2)c1	17.3
O=C(COC(=O)CCCN1C(=O)c2cccc3cccc(c23)C1=O)Nc1ccc(Cl)cc1	13.7
Cc1ccc2[nH]c(=O)c(CN(CC3CCCO3)S(=O)(=O)c3c(C)ccc4nsnc34)cc2c1 (centres unmarked)	-2.14

SMILES	hERG current change (%, negative = inhibition) at 1uM [%]
COc1ccc(C(=O)NCC(c2cccs2)N2CCc3ccccc32)cc1OC (centres unmarked)	-4.47
CCn1c(=O)cc(N2CCN(C(=O)c3ccco3)CC2)[nH]c1=O	10.6
Cc1cccc(C)c1-n1c(C)nn(CCOc2ccccc2)c1=O	4.63
NC(=O)c1c(NC(=O)CSc2nc3c(c(C(F)(F)F)n2)CCc2ccccc2-3)sc2c1CCCC2	1.55
OC(c1ccc(Cl)cc1Cl)C(Cc1cccnc1)n1cncn1 (centres unmarked)	-0.657
Cc1ccc2nc(NC(=O)COC(=O)c3ccco3)sc2c1	15.9
CC1(C)CC(=O)C=C(c2cccc3c2sc2ccccc23)C1	16.8
O=C(Nc1nccs1)NC(C(F)(F)F)C(F)(F)F	6.58
CCCCN(C)C(=O)Cn1nc(Cc2ccncc2)c2ccccc2c1=O	5.07
Cc1nc(SCC(=O)N(CC(C)C)C2CCS(=O)(=O)C2)c2c(C)c(C)sc2n1 (centres unmarked)	5.63
CN(C)S(=O)(=O)c1cccc(C(=O)Nc2ccccc2[N+](=O)[O-])c1	12.1
CC(C)CN1C(=O)C(=O)N(CC(=O)c2ccc[nH]2)C1=O	14.2
CCC(=O)N1CC(=O)Nc2ccc(Br)cc2C1c1ccccc1 (centres unmarked)	1.55
O=C1CC(c2ccco2)Cc2nc(N3CCc4ccccc4C3)ncc21 (centres unmarked)	6.33
COC(=O)CN1C(c2ccccc2)=Nc2ccc(Cl)cc2C1c1ccccc1 (centres unmarked)	-17.3
CCCCOc1ccc(C(O)C(CN2CCCCC2)c2ccccc2)cc1 (centres unmarked)	-0.643
O=C(NC(=S)N(CCCCO)C1CCCCC1)c1sc2ccccc2c1Cl	-0.926
O=C(NCCS(=O)(=O)N1CCCC1)c1ccccc1	9.78

Source: publication PMC4336329 (PLoS ONE, 2015)
